From US7166622B2, “Substituted phenylsulfonamide inhibitors of beta amyloid production” (Wyeth, priority 2002, dated 2007)
Where “and” joins values, the source holds several entries; their conditions need not be identical. Identical values can stand only once. The name of at least one read-out is uncertain.

What follows are molecules tested on beta amyloid production (assay: Repressor Release Assay (RRA)). Settings: Conc 1 μg/ml; relative to Example 98.
Type: cell-based
Procedure: CHO-K1 cells were cultured in whole DMEM media (DMEM—High Glucose with 10% fetal bovine serum, 1% Non-essential Amino Acids, and 1% Penicillin-Streptomycin) at 37° C. with 5% CO2. Two million cells were plated into 10-cm dishes 24 hrs prior to transfection.
Transient transfections were completed as recommended by Gibco BRL using their Lipofectamine Plus system. First, 6 μg of pRSVO-luc and 6 μg of APP-lacI construct DNA were added to 460 μL Opti-Mem transfection media and incubated with 30 μL Plus reagent for 15 minutes. Then, a lipid mixture of 40 μL Lipofectamine reagent and 460 μL Opti-Mem transfection media was incubated with the DNA-Plus reagent mixture for 15 minutes. During the DNA-lipid incubation, the CHO-K1 cells were washed once and covered in 5.0 mL DMEM media without Penicillin-Streptomycin. The DNA-lipid preparation was then layered onto these cells and incubated at 37° C. overnight.
[…] transfected cells per well (100 μL total volume) were plated into sterile, opaque Packard 96-well Culture-Plates in clear DMEM whole media (DMEM—without phenol red) and incubated at 37° C. with 5% CO2 for 3-5 hours.
Compounds were diluted using two different protocols; one protocol was used for compounds supplied neat (weighed powder in vial) and the other protocol was used for compounds supplied in solution (20 mM in DMSO in 96-well plates). For both protocols, 25 mM Hepes and 25 mM Hepes/1% DMSO were prepared fresh to be used as diluent. The Hepes/DMSO was used as the diluent control on all experimental plates.
The following table depicts the steps for compound dilution (please note that the last step was the addition of compound to cells/media in tissue culture plate).
Because some compounds were present in 96-well format at 20 mM, the following represents the protocol for their dilution (note that an average molecular weight of these compounds was used to calculate these dilutions and as above, the last step was the addition of compound to cells/media in tissue culture plate).
Once the compounds were diluted, they were applied in duplicate on cells in tissue culture plates (prepared above). Cells were incubated with compound at 37° C. with 5% CO2 for an additional 36-48 hours.
Luciferase assays (LucLite reagent, Packard) were performed and were read on a Packard TopCount instrument. Media was removed from each 96-well plate and replaced with 100 μL PBS per well (with Mg^2+ and Ca^2+). An equal volume (100 μL) of the LucLite lysis/substrate buffer was added to each well and the plates were sealed and mixed in the dark on a rotary shaker for 15-30 minutes at room temperature. Luciferase readings were then taken on the TopCount instrument. Measurements were expressed as relative light units (RLU) and are calculated and analyzed in MS Excel as follows: […]

In the case of `CC[C@@H](C)[C@@H](CO)NS(=O)(=O)c1ccc(Br)cc1` [Example 36, 4-bromo-N-[(1S,2R)-1-(hydroxymethyl)-2-methylbutyl]benzenesulfonamide], the “APPI % of Example #98” value is reported as 51.68%.

Same assay, conditions: Conc 3 μg/ml; relative to Example 98

Compared with `CC[C@@H](C)[C@@H](CO)NS(=O)(=O)c1ccc(Br)cc1` [Example 36, 4-bromo-N-[(1S,2R)-1-(hydroxymethyl)-2-methylbutyl]benzenesulfonamide], `CC[C@@H](C)[C@@H](CO)NS(=O)(=O)c1ccc(Cl)cc1` [Example 39, 4-chloro-N-[(1S,2R)-1-(hydroxymethyl)-2-methylbutyl]benzenesulfonamide] is lower in “APPI % of Example #98” value: 66.34% for the first, 50.53% for the second.

Same assay, conditions: Conc 10 μg/ml; relative to Example 98

Going from `CC[C@@H](C)[C@@H](CO)NS(=O)(=O)c1ccc(Br)cc1` [Example 36, 4-bromo-N-[(1S,2R)-1-(hydroxymethyl)-2-methylbutyl]benzenesulfonamide] to `CC[C@@H](C)[C@@H](CO)NS(=O)(=O)c1ccc(Cl)cc1` [Example 39, 4-chloro-N-[(1S,2R)-1-(hydroxymethyl)-2-methylbutyl]benzenesulfonamide], the “APPI % of Example #98” value falls from 107.5% to 79.99%.

Same assay, conditions: Conc 20 μg/ml; luciferase activity (RLU) over diluent control

`CCC(CC)[C@@H](CO)NS(=O)(=O)c1ccc(Cl)cc1` [Example 52, 4-chloro-N-[(1S)-2-ethyl-1-(hydroxymethyl)butyl]benzenesulfonamide] was tested, and the “APPI Fold Increase” value was 8.6.

Same assay, conditions: Conc 20 μg/ml; luciferase activity over diluent control

With `CC[C@@H](C)[C@@H](CO)NS(=O)(=O)c1ccc(Br)cc1` [Example 36, 4-bromo-N-[(1S,2R)-1-(hydroxymethyl)-2-methylbutyl]benzenesulfonamide] the “APPI Fold Increase” value was 4.5 fold.

Same assay, conditions: Conc 20 μg/ml; relative to Example 98

First: CC(C)(C)[C@@H](CO)NS(=O)(=O)c1c(Cl)cc(Cl)cc1Cl [Example 32, 2,4,6-trichloro-N-[(1 S)-1-(hydroxymethyl)-2,2-dimethylpropyl]benzenesulfonamide]
Second: CC(C)[C@@](C)(CO)NS(=O)(=O)c1ccc(Cl)cc1 [Example 37, 4-chloro-N-[(1S)-1-(hydroxymethyl)-1,2-dimethylpropyl]benzenesulfonamide]
The “APPI % of Example #98” value of the first is lower: 51.6% for the first, 136.5% for the second.

Compared with `CC[C@@H](C)[C@H](CO)NS(=O)(=O)c1ccc(Br)cc1` [Example 33, 4-Bromo-N-[(1R,2R)-1-(hydroxymethyl)-2-methylbutyl]benzenesulfonamide], `CC[C@@H](C)[C@@H](CO)NS(=O)(=O)c1ccc(Cl)cc1` [Example 39, 4-chloro-N-[(1S,2R)-1-(hydroxymethyl)-2-methylbutyl]benzenesulfonamide] is higher in “APPI % of Example #98” value: 112% for the first, 158.9% for the second.

First: CC(C)[C@@](C)(CO)NS(=O)(=O)c1ccc(Br)cc1 [Example 34, 4-bromo-N-[(1 S)-1-(hydroxymethyl)-1,2-dimethylpropyl]benzenesulfonamide]
Second: CC(c1ccccc1)C(CO)NS(=O)(=O)c1ccc(Br)cc1 (stereo not drawn) [Example 35, 4-bromo-N-[-1-(hydroxymethyl)-2-phenylpropyl]benzenesulfonamide]
The “APPI % of Example #98” value of the first is higher: 122.5% for the first, 68.1% for the second.

Going from `CC(c1ccccc1)C(CO)NS(=O)(=O)c1ccc(Cl)cc1` (stereo not drawn) [Example 38, 4-chloro-N-[1-(hydroxymethyl)-2-phenylpropyl]benzenesulfonamide] to `C[C@H](c1ccccc1)[C@@H](CO)NS(=O)(=O)c1ccc(Cl)cc1` [Example 51, 4-chloro-N-[(1S,2R)-1-(hydroxymethyl)-2-phenylpropyl]benzenesulfonamide], the “APPI % of Example #98” value falls from 94.8% to 37.6%.

Compared with `C=CCN([C@H](CO)[C@@H](C)CC)S(=O)(=O)c1ccc(Cl)cc1` [Example 40, N-Allyl-4-chloro-N-[(1S,2 S)-1-(hydroxymethyl)-2-methylbutyl]benzenesulfonamide], `CC[C@H](C)[C@@H](CO)N(CCSC)S(=O)(=O)c1ccc(Cl)cc1` [Example 47, 4-chloro-N-[(1S,2S)-1-(hydroxymethyl)-2-methylbutyl]-N-[2-(methylthio)ethyl]benzenesulfonamide] is lower in “APPI % of Example #98” value: 126.2% for the first, 88.9% for the second.

Going from `CC[C@H](C)[C@@H](CO)N(Cc1ccc(-c2ccccc2)cc1)S(=O)(=O)c1ccc(Cl)cc1` [Example 41, N-([1,1′-biphenyl]-4-ylmethyl)-4-chloro-N-[(1S,2S)-1-(hydroxymethyl)-2-methylbutyl]benzenesulfonamide] to `CC[C@H](C)[C@@H](CO)N(Cc1ccc(Cl)cc1)S(=O)(=O)c1ccc(Cl)cc1` [Example 43, 4-chloro-N-(4-chlorobenzyl)-N-[(1S,2S)-1-(hydroxymethyl)-2-methylbutyl]benzenesulfonamide], the “APPI % of Example #98” value rises from 182.1% to 190%.

Compared with `CC[C@H](C)[C@@H](CO)N(Cc1ccc(OC)c(OC)c1)S(=O)(=O)c1ccc(Cl)cc1` [Example 45, 4-chloro-N-(3,4-dimethoxybenzyl)-N-[(1S,2S)-1-(hydroxymethyl)-2-methylbutyl]benzenesulfonamide], `CC[C@H](C)[C@@H](CO)N(Cc1ccco1)S(=O)(=O)c1ccc(Cl)cc1` [Example 46, 4-chloro-N-(2-furylmethyl)-N-[(1S,2S)-1-(hydroxymethyl)-2-methylbutyl]benzenesulfonamide] is higher in “APPI % of Example #98” value: 55.9% for the first, 67.4% for the second.

Compared with `COc1ccc([C@@H](C)[C@@H](CO)NS(=O)(=O)c2ccc(Cl)cc2)cc1` [Example 49, 4-Chloro-N-[(1S,2R)-1-(hydroxymethyl)-2-(4-methoxyphenyl)propyl]benzenesulfonamide], `CCC[C@H](c1ccc(OC)cc1)[C@@H](CO)NS(=O)(=O)c1ccc(Cl)cc1` [Example 57, 4-chloro-N-[(1S,2R)-1-(hydroxymethyl)-2-(4-methoxyphenyl)pentyl]benzenesulfonamide] is lower in “APPI % of Example #98” value: 59.1% for the first, 39.1% for the second.

Compared with `CCCCCC[C@@H](C)[C@@H](CO)NS(=O)(=O)c1ccc(Cl)cc1` [Example 50, 4-chloro-N-[(1S,2R)-1-(hydroxymethyl)-2-methyloctyl]benzenesulfonamide], `CCCCC[C@H](C)[C@@H](CO)NS(=O)(=O)c1ccc(Cl)cc1` [Example 60, 4-chloro-N-[(1S,2S)-1-(hydroxymethyl)-2-methylheptyl]benzenesulfonamide] is higher in “APPI % of Example #98” value: 59.3% for the first, 109.3% for the second.

Going from `CC[C@H](CC(C)C)[C@@H](CO)NS(=O)(=O)c1ccc(Cl)cc1` [Example 53, 4-chloro-N-[(1S,2R)-2-ethyl-1-(hydroxymethyl)-4-methylpentyl]benzenesulfonamide] to `CCC[C@H](CC(C)C)[C@@H](CO)NS(=O)(=O)c1ccc(Cl)cc1` [Example 56, 4-chloro-N-[(1S,2R)-1-(hydroxymethyl)-4-methyl-2-propylpentyl]benzenesulfonamide], the “APPI % of Example #98” value falls from 121.9% to 85.4%.

Going from `CCC[C@H](C)[C@@H](CO)NS(=O)(=O)c1ccc(Cl)cc1` [Example 54, 4-chloro-N-[(1S,2S)-1-(hydroxymethyl)-2-methylpentyl]benzenesulfonamide] to `CCC[C@H](CC)[C@@H](CO)NS(=O)(=O)c1ccc(Cl)cc1` [Example 55, 4-chloro-N-[(1S,2S)-2-ethyl-1-(hydroxymethyl)pentyl]benzenesulfonamide], the “APPI % of Example #98” value rises from 117% to 131.5%.

Going from `CCCCCC[C@@H](CCC)[C@@H](CO)NS(=O)(=O)c1ccc(Cl)cc1` [Example 58, 4-chloro-N-[(1S,2R)-1-(hydroxymethyl)-2-propyloctyl]benzenesulfonamide] to `CCCCCC[C@@H](CCCCC)[C@@H](CO)NS(=O)(=O)c1ccc(Cl)cc1` [Example 62, 4-chloro-N-[(1S,2R)-1-(hydroxymethyl)-2-pentyloctyl]benzenesulfonamide], the “APPI % of Example #98” value falls from 61.2% to 42.2%.

First: CCC[C@H](c1ccccc1)[C@@H](CO)NS(=O)(=O)c1ccc(Cl)cc1 [Example 59, 4-chloro-N-[(1S,2R)-1-(hydroxymethyl)-2-phenylpentyl]benzenesulfonamide]
Second: CCCCCC[C@@H](c1ccccc1)[C@@H](CO)NS(=O)(=O)c1ccc(Cl)cc1 [Example 65, 4-chloro-N-[(1S,2S)-1-(hydroxymethyl)-2-phenyloctyl]benzenesulfonamide]
The “APPI % of Example #98” value of the first is higher: 76.3% for the first, 44.6% for the second.

Going from `CCCCC[C@H](CC)[C@@H](CO)NS(=O)(=O)c1ccc(Cl)cc1` [Example 61, 4-chloro-N-[(1S,2S)-2-ethyl-1-(hydroxymethyl)-heptyl]benzenesulfonamide] to `CC[C@@H](c1ccco1)[C@@H](CO)NS(=O)(=O)c1ccc(Cl)cc1` [Example 66, 4-chloro -N-[(1S,2R)-2-(2-furyl)-1-(hydroxymethyl)butyl]benzenesulfonamide], the “APPI % of Example #98” value falls from 152.3% to 129.1%.

First: C[C@@H](c1ccccc1)[C@@H](CO)NS(=O)(=O)c1ccc(Cl)cc1 [Example 63, 4-chloro-N-[(1S,2S)-1-(hydroxymethyl)-2-phenylpropyl]benzenesulfonamide]
Second: CC(C)C[C@@H](c1ccccc1)[C@@H](CO)NS(=O)(=O)c1ccc(Cl)cc1 [Example 64, 4-chloro-N-[(1S,2S)-1-(hydroxymethyl)-4-methyl-2-phenylpentyl]benzenesulfonamide]
The “APPI % of Example #98” value of the first is higher: 47.9% for the first, 39.3% for the second.

For `CC(C)C[C@@H](c1ccco1)[C@@H](CO)NS(=O)(=O)c1ccc(Cl)cc1` [Example 67, 4-chloro -N-[(1S,2R)-2-(2-furyl)-1-(hydroxymethyl)-4-methylpentyl]benzenesulfonamide], the “APPI % of Example #98” value was 91.5%.

`CC[C@@H](C)[C@@H](CO)NS(=O)(=O)c1ccc(Br)cc1` [Example 36, 4-bromo-N-[(1S,2R)-1-(hydroxymethyl)-2-methylbutyl]benzenesulfonamide] was tested, and the “APPI % of Example #98” value was 186.2% and 107%.
